This is an account of results in the supplement of paper PMC10928670.

Holding throughout (experiment): Agar dilution by CLSI M07.
Compound in one assay: CN[C@@H]1[C@H](O)[C@H](NC)[C@H]2O[C@@]3(O)C(=O)C[C@@H](C)O[C@H]3O[C@@H]2[C@H]1O [spectinomycin]
Compound in the next assay: C=CC1=C(C(=O)O)N2C(=O)[C@@H](NC(=O)/C(=N\OCC(=O)O)c3csc(N)n3)[C@H]2SC1 [cefixime]
Compound in another assay: CC[C@H]1OC(=O)[C@H](C)[C@@H](O[C@H]2C[C@@](C)(OC)[C@@H](O)[C@H](C)O2)[C@H](C)[C@@H](O[C@@H]2O[C@H](C)C[C@H](N(C)C)[C@H]2O)[C@](C)(O)C[C@@H](C)CN(C)[C@H](C)[C@@H](O)[C@]1(C)O [azithromycin]
Compound in a further assay: CC1(C)S[C@@H]2[C@H](NC(=O)Cc3ccccc3)C(=O)N2[C@H]1C(=O)O [penicillin G]
Compound in another assay: CO/N=C(\C(=O)N[C@@H]1C(=O)N2C(C(=O)O)=C(CSc3nc(=O)c(O)nn3C)CS[C@H]12)c1csc(N)n1 [ceftriaxone]

MIC of N. gonorrhoeae strains collected 1971-2005, agar dilution (CLSI M07); ranges 0.03-64 mg/L (penicillin, azithromycin), 0.015-1 (cefixime, ceftriaxone), 0.5-256 (spectinomycin); higher = less susceptible. No active / inactive call per row; the paper counts cefixime and ceftriaxone above 0.25 and azithromycin above 1 mg/L as non-susceptible. The source says 'penicillin'; penicillin G is assumed. Isolates are numbered anew. A value given as a limit tells only on which side of the number the result lay.

Usually MIC stands for the lowest concentration found to suppress growth. On to “Neisseria gonorrhoeae isolate 32 (GyrA: S91F, ParC: Wild type, mtrR: G45D, penA: Type IV NonMosaic, A517G, G543S, ponA: L421P, porB: G120N)”, for which the MIC worked out at 16 mg/L with spectinomycin; 0.03 mg/L with cefixime; 0.06 mg/L with azithromycin; 1 mg/L with penicillin G; 0.03 mg/L in the assay with ceftriaxone.

Consider “Neisseria gonorrhoeae isolate 28 (GyrA: Wild type, ParC: Wild type, mtrR: -35A Del, penA: Type XXII NonMosaic, A517G, ponA: L421P, porB: G120K, A121D)”, for which the MIC with spectinomycin was 32 mg/L; with cefixime, 0.03 mg/L; in the assay with azithromycin, 1 mg/L; with penicillin G, above 64 mg/L; with ceftriaxone it was at most 0.015 mg/L.

Regarding “Neisseria gonorrhoeae isolate 151 (GyrA: S91F, ParC: Wild type, mtrR: G45D, penA: Type IV NonMosaic, A517G, G543S, ponA: L421P, porB: G120K, A121D)”, the MIC is 32 mg/L with spectinomycin; 0.03 mg/L with cefixime; 0.06 mg/L in the assay with azithromycin; 4 mg/L with penicillin G; 0.06 mg/L with ceftriaxone.

“Neisseria gonorrhoeae isolate 43 (GyrA: S91F, D95G, ParC: Wild type, mtrR: -35A Del, penA: Type XIII NonMosaic, A501V, A517G, ponA: L421P, porB: G120K, A121D)”: the MIC came out at 16 mg/L in the assay with spectinomycin; 0.5 mg/L in the assay with cefixime; 0.25 mg/L with azithromycin; 4 mg/L with penicillin G; 0.25 mg/L with ceftriaxone.

Take “Neisseria gonorrhoeae isolate 56 (GyrA: Wild type, ParC: Wild type, mtrR: -35A Del, penA: Type IV NonMosaic, A517G, G543S, ponA: L421P, porB: G120K, A121D)”: the MIC in the assay with spectinomycin worked out at 32 mg/L; with cefixime, 0.03 mg/L; with azithromycin it was 0.25 mg/L; in the assay with penicillin G, 1 mg/L; with ceftriaxone, 0.06 mg/L.

Consider “Neisseria gonorrhoeae isolate 172 (GyrA: Wild type, ParC: Wild type, mtrR: G45D, penA: Type XXII NonMosaic, A517G, ponA: Wild type, porB: Wild type)”, for which the MIC in the assay with spectinomycin was at most 0.5 mg/L; with cefixime, at most 0.015 mg/L; with azithromycin, at most 0.03 mg/L; with penicillin G, at most 0.03 mg/L; with ceftriaxone it was at most 0.015 mg/L.

“Neisseria gonorrhoeae isolate 96 (GyrA: S91F, ParC: Wild type, mtrR: A39T, penA: Type XIX NonMosaic, A517G, ponA: L421P, porB: porB1a)”: the MIC in the assay with spectinomycin was 32 mg/L; with cefixime, at most 0.015 mg/L; in the assay with azithromycin, 0.06 mg/L; with penicillin G it was 16 mg/L; with ceftriaxone, at most 0.015 mg/L.

On to “Neisseria gonorrhoeae isolate 194 (GyrA: Wild type, ParC: Wild type, mtrR: -35A Del, G45D, penA: Type XXII NonMosaic, A517G, ponA: L421P, porB: G120D)”, for which the MIC was 16 mg/L with spectinomycin; at most 0.015 mg/L with cefixime; 0.06 mg/L with azithromycin; 0.25 mg/L with penicillin G; at most 0.015 mg/L in the assay with ceftriaxone.

For “Neisseria gonorrhoeae isolate 86 (GyrA: Wild type, ParC: Wild type, mtrR: -35A Del, G45D, penA: Type XXII NonMosaic, A517G, ponA: Wild type, porB: G120D)”, the MIC amounted to 16 mg/L in the assay with spectinomycin; 0.03 mg/L with cefixime; 0.5 mg/L with azithromycin; 1 mg/L in the assay with penicillin G; 0.03 mg/L with ceftriaxone.

As for “Neisseria gonorrhoeae isolate 228 (GyrA: Wild type, ParC: Wild type, mtrR: -35A Del, G45D, penA: Type IV NonMosaic, A517G, G543S, ponA: L421P, porB: G120K, A121D)”, the MIC with spectinomycin is 16 mg/L; with cefixime it was at most 0.015 mg/L; with azithromycin, at most 0.03 mg/L; in the assay with penicillin G it was 0.5 mg/L; with ceftriaxone, at most 0.015 mg/L.

For the test system “Neisseria gonorrhoeae isolate 224 (GyrA: Wild type, ParC: Wild type, mtrR: -35A Del, penA: Type II NonMosaic, A517G, ponA: Wild type, porB: Wild type)”, the MIC was 16 mg/L in the assay with spectinomycin; at most 0.015 mg/L in the assay with cefixime; at most 0.03 mg/L in the assay with azithromycin; 0.125 mg/L with penicillin G; at most 0.015 mg/L in the assay with ceftriaxone.

As to “Neisseria gonorrhoeae isolate 64 (GyrA: Wild type, ParC: Wild type, mtrR: -35A Del, A39T, penA: Type XII NonMosaic, A517G, ponA: L421P, porB: G120D)”, the MIC amounted to 16 mg/L with spectinomycin; 0.03 mg/L with cefixime; 0.25 mg/L with azithromycin; 1 mg/L in the assay with penicillin G; 0.03 mg/L with ceftriaxone.

On to “Neisseria gonorrhoeae isolate 44 (GyrA: Wild type, ParC: Wild type, mtrR: G45D, penA: Type XXI NonMosaic, A501V, A517G, ponA: L421P, porB: G120K, A121D)”, for which the MIC with spectinomycin came to 16 mg/L; in the assay with cefixime, 0.03 mg/L; with azithromycin, 0.125 mg/L; in the assay with penicillin G it was 0.5 mg/L; with ceftriaxone it was 0.03 mg/L.

As for “Neisseria gonorrhoeae isolate 127 (GyrA: Wild type, ParC: Wild type, mtrR: -35A Del, penA: Type II NonMosaic, A517G, ponA: Wild type, porB: G120D)”, the MIC is 16 mg/L with spectinomycin; at most 0.015 mg/L in the assay with cefixime; at most 0.03 mg/L in the assay with azithromycin; above 64 mg/L in the assay with penicillin G; at most 0.015 mg/L with ceftriaxone.

With “Neisseria gonorrhoeae isolate 8 (GyrA: Wild type, ParC: Wild type, mtrR: G45D, penA: Type IV NonMosaic, A517G, G543S, ponA: L421P, porB: G120K, A121D)”, the minimal inhibitory concentration (MIC) came out at 16 mg/L with spectinomycin; 0.03 mg/L in the assay with cefixime; 0.25 mg/L in the assay with azithromycin; 2 mg/L with penicillin G; 0.03 mg/L in the assay with ceftriaxone.

For “Neisseria gonorrhoeae isolate 177 (GyrA: S91F, D95G, ParC: Wild type, mtrR: -35A Del, penA: Type V Nonmosaic, A517G, G543S, ponA: L421P, porB: G120K, A121D)”, the MIC is 32 mg/L with spectinomycin; 0.03 mg/L with cefixime; 0.5 mg/L in the assay with azithromycin; 2 mg/L with penicillin G; 0.03 mg/L with ceftriaxone.

Regarding “Neisseria gonorrhoeae isolate 100 (GyrA: Wild type, ParC: Wild type, mtrR: Wild type, penA: Type II NonMosaic, A517G, ponA: L421P, porB: G120N, A121D)”, the MIC with spectinomycin is 16 mg/L; with cefixime, at most 0.015 mg/L; in the assay with azithromycin, 0.25 mg/L; with penicillin G it was 0.25 mg/L; in the assay with ceftriaxone, at most 0.015 mg/L.

In the case of “Neisseria gonorrhoeae isolate 162 (GyrA: Wild type, ParC: Wild type, mtrR: -35A Del, G45D, penA: Type XXII NonMosaic, A517G, ponA: L421P, porB: G120D, A121D)”, the MIC was 32 mg/L in the assay with spectinomycin; at most 0.015 mg/L with cefixime; at most 0.03 mg/L in the assay with azithromycin; 0.25 mg/L with penicillin G; at most 0.015 mg/L in the assay with ceftriaxone.

As for “Neisseria gonorrhoeae isolate 49 (GyrA: Wild type, ParC: Wild type, mtrR: -35A Del, G45D, penA: Type XII NonMosaic, A517G, ponA: L421P, porB: G120D)”, the MIC with spectinomycin was 16 mg/L; with cefixime, 0.03 mg/L; with azithromycin, 0.5 mg/L; with penicillin G, 2 mg/L; in the assay with ceftriaxone it was 0.03 mg/L.

As for “Neisseria gonorrhoeae isolate 243 (GyrA: S91F, D95G, ParC: Wild type, mtrR: -35A Del, penA: Type V Nonmosaic, A517G, G543S, ponA: L421P, porB: G120N, A121D)”, the MIC with spectinomycin is 32 mg/L; in the assay with cefixime, at most 0.015 mg/L; with azithromycin, 0.5 mg/L; in the assay with penicillin G, 2 mg/L; with ceftriaxone, at most 0.015 mg/L.

On to “Neisseria gonorrhoeae isolate 120 (GyrA: Wild type, ParC: Wild type, mtrR: -35A Del, G45D, penA: Type XIX NonMosaic, A517G, ponA: L421P, porB: G120D, A121D)”, for which the MIC in the assay with spectinomycin was 16 mg/L; in the assay with cefixime, at most 0.015 mg/L; in the assay with azithromycin, at most 0.03 mg/L; with penicillin G, 0.125 mg/L; in the assay with ceftriaxone, at most 0.015 mg/L.

Turning to “Neisseria gonorrhoeae isolate 195 (GyrA: Wild type, ParC: Wild type, mtrR: G45D, penA: Type XXII NonMosaic, A517G, ponA: Wild type, porB: Wild type)”, the MIC with spectinomycin is 16 mg/L; in the assay with cefixime it was 0.03 mg/L; in the assay with azithromycin, 0.06 mg/L; with penicillin G, 0.25 mg/L; in the assay with ceftriaxone, at most 0.015 mg/L.

For “Neisseria gonorrhoeae isolate 83 (GyrA: Wild type, ParC: Wild type, mtrR: -35A Del, G45D, penA: Type IV NonMosaic, A517G, G543S, ponA: L421P, porB: G120K, A121D)”, the MIC worked out at 16 mg/L with spectinomycin; 0.06 mg/L with cefixime; 0.25 mg/L in the assay with azithromycin; 4 mg/L with penicillin G; 0.06 mg/L with ceftriaxone.

For the test system “Neisseria gonorrhoeae isolate 239 (GyrA: Wild type, ParC: Wild type, mtrR: -35A Del, G45D, penA: Type II NonMosaic, A517G, ponA: L421P, porB: G120K, A121N)”, the MIC with spectinomycin is 16 mg/L; with cefixime it was at most 0.015 mg/L; in the assay with azithromycin, 0.25 mg/L; in the assay with penicillin G, 8 mg/L; with ceftriaxone, at most 0.015 mg/L.

As to “Neisseria gonorrhoeae isolate 223 (GyrA: S91F, ParC: Wild type, mtrR: G45D, penA: Type IV NonMosaic, A517G, G543S, ponA: L421P, porB: G120K, A121D)”, the MIC with spectinomycin is 16 mg/L; in the assay with cefixime, 0.03 mg/L; with azithromycin it was 0.125 mg/L; with penicillin G, 1 mg/L; with ceftriaxone it was 0.03 mg/L.
